Experimental findings from the antibiotic and cytotoxicity screens of Wong et al. (2023) are described below.

Each structure is given as a SMILES string. The list shows a part of the results.

Experiment [1] concerns HSkMC (human skeletal muscle cells). Description: cytotoxicity call (relative viability < 0.9). To be noted: 10 µM.
The test system of experiment [2] is HepG2. In words: cytotoxicity call (relative viability < 0.9). The note with it: 10 µM.
The test system of experiment [3] is S. aureus RN4220. Description: growth inhibition call (relative growth <= 0.2). The note with it: 50 µM.

With `C[C@@H]1CCCCO[C@@H](CN(C)C(=O)Nc2ccc3c(c2)OCO3)[C@H](C)CN([C@@H](C)CO)C(=O)c2cc(NC(=O)c3ccccc3)ccc2O1`, the cytotoxicity call in experiment [1] and in experiment [2] was “inactive” throughout. In addition, the growth inhibition call in experiment [3] is “inactive”.
As to `Cc1noc(C)c1S(=O)(=O)N(C)C[C@@H]1Oc2ccc(NS(=O)(=O)c3ccccc3)cc2CC(=O)N([C@H](C)CO)C[C@@H]1C`, the cytotoxicity call in experiment [1] and in experiment [2] was “inactive” each time. The growth inhibition call in experiment [3] was “inactive”.
As to `O=C(C[C@H]1C=C[C@@H](NC(=O)c2ccncc2)[C@H](CO)O1)NCc1ccncn1`, the cytotoxicity call in experiment [1] and in experiment [2] was “inactive” in each case. Besides, the growth inhibition call in experiment [3] is “inactive”.
`C[C@@H]1CCCCO[C@@H](CN(C)C(=O)Nc2ccc(F)cc2)[C@@H](C)CN([C@H](C)CO)C(=O)c2cc(NC(=O)c3ccccc3)ccc2O1`: the cytotoxicity call in experiment [1] and in experiment [2] was “inactive” each time. In addition, the growth inhibition call in experiment [3] was “inactive”.
Take `C[C@@H]1CN([C@@H](C)CO)S(=O)(=O)c2ccc(C#C[C@@H](C)O)cc2O[C@@H]1CN(C)C(=O)c1ccccc1`: the cytotoxicity call in experiment [1] and in experiment [2] was “inactive” in each case. The growth inhibition call in experiment [3] was “inactive”.
As for `Cc1ccc(S(=O)(=O)N(C)C[C@H]2Oc3ccc(NS(=O)(=O)c4cccs4)cc3C(=O)N([C@H](C)CO)C[C@@H]2C)cc1`, the cytotoxicity call in experiment [1] and in experiment [2] was “inactive” in each case. The growth inhibition call in experiment [3] was “inactive”.
For `C[C@H]1CN([C@@H](C)CO)C(=O)c2cc(C#CC3(O)CCCC3)cnc2O[C@@H]1CN(C)C(=O)Nc1ccc2c(c1)OCO2`, the cytotoxicity call in experiment [1] and in experiment [2] was “inactive” throughout. In addition, the growth inhibition call in experiment [3] was “inactive”.
For the compound `C[C@H]1CN([C@@H](C)CO)C(=O)c2cccc(NS(=O)(=O)c3cn(C)cn3)c2O[C@@H]1CN(C)C(=O)Nc1ccccc1`, the cytotoxicity call in experiment [1] and in experiment [2] was “inactive” each time. In addition, the growth inhibition call in experiment [3] was “inactive”.
Consider `COCCOC(=O)N1C(=O)[C@@]2(c3cc(C#CC4=CCCCC4)ccc31)[C@H](C(=O)NC[C@H](O)c1ccccc1)[C@H]1C(=O)O[C@H](c3ccccc3)[C@H](c3ccccc3)N1[C@@H]2c1ccc(O)cc1`, for which the cytotoxicity call in experiment [1] and in experiment [2] was “inactive” in each case. In experiment [3], the growth inhibition call is “inactive”.
Regarding `C[C@H](CO)N1C[C@H](C)[C@H](CN(C)C(=O)Nc2ccc(C(F)(F)F)cc2)Oc2ccc(NC(=O)NC3CCCCC3)cc2CC1=O`, the cytotoxicity call in experiment [1] and in experiment [2] was “inactive” throughout. Further, in experiment [3], the growth inhibition call is “inactive”.
Turning to `C[C@H](CO)N1C[C@H](C)[C@H](CN(C)S(C)(=O)=O)Oc2ncc(C#CC(C)(C)O)cc2C1=O`, the cytotoxicity call in experiment [1] and in experiment [2] was “inactive” in each case. Also, the growth inhibition call in experiment [3] was “inactive”.
Take `O=C(CCBr)N1CCN(C(=O)CCBr)CC1`: the cytotoxicity call in experiment [1] and in experiment [2] was “inactive” in each case. The growth inhibition call in experiment [3] was “inactive”.
As for `CCOC(=O)N(C)C[C@@H]1OCc2cnnn2CCCC(=O)N([C@@H](C)CO)C[C@H]1C`, the cytotoxicity call in experiment [1] and in experiment [2] was “inactive” in each case. For the same compound, the growth inhibition call in experiment [3] was “inactive”.
On to `COc1ccc(S(=O)(=O)N(C)C[C@H]2OCCCC[C@H](C)Oc3ccc(NS(=O)(=O)c4ccc(Cl)cc4)cc3C(=O)N([C@H](C)CO)C[C@H]2C)cc1`, for which the cytotoxicity call in experiment [1] is “inactive”. For the same compound, the cytotoxicity call in experiment [2] is “active”. The growth inhibition call in experiment [3] is “inactive”.
Turning to `C[C@H](CO)N1C[C@H](C)[C@H](CN(C)S(=O)(=O)c2cccs2)Oc2ccc(NC(=O)CCN3CCOCC3)cc2CC1=O`, the cytotoxicity call in experiment [1] and in experiment [2] was “inactive” each time. Moreover, the growth inhibition call in experiment [3] was “inactive”.
With `COc1ccc(NC(=O)N(C)C[C@@H]2OCCCC[C@@H](C)Oc3ccc(NS(=O)(=O)c4ccccc4)cc3C(=O)N([C@H](C)CO)C[C@H]2C)cc1`, the cytotoxicity call in experiment [1] and in experiment [2] was “inactive” each time. Also, the growth inhibition call in experiment [3] was “inactive”.
In the case of `Cc1noc(C)c1S(=O)(=O)Nc1ccc2c(c1)C(=O)N([C@H](C)CO)C[C@H](C)[C@H](CN(C)S(=O)(=O)c1cccs1)O2`, the cytotoxicity call in experiment [1] and in experiment [2] was “inactive” each time. Moreover, the growth inhibition call in experiment [3] was “inactive”.
For `COc1ccc(NC(=O)N(C)C[C@H]2Oc3c(NC(=O)C4CC4)cccc3C(=O)N([C@H](C)CO)C[C@@H]2C)cc1`, the cytotoxicity call in experiment [1] and in experiment [2] was “inactive” each time. Besides, in experiment [3], the growth inhibition call was “inactive”.
Turning to `Cc1noc(C)c1S(=O)(=O)Nc1ccc2c(c1)C(=O)N([C@@H](C)CO)C[C@@H](C)[C@@H](CN(C)S(=O)(=O)c1cccs1)O2`, the cytotoxicity call in experiment [1] and in experiment [2] was “inactive” in each case. In experiment [3], the growth inhibition call was “inactive”.
With `C[C@@H]1CN([C@@H](C)CO)C(=O)c2cc(NS(=O)(=O)c3cn(C)cn3)ccc2O[C@@H]1CN(C)Cc1ccccc1`, the cytotoxicity call in experiment [1] and in experiment [2] was “inactive” in each case. Besides, the growth inhibition call in experiment [3] was “inactive”.
For the compound `CO[C@@H](C(=O)N(C)C[C@@H]1OCc2ccccc2-c2c(n(C)c3ccccc23)C(=O)N([C@@H](C)CO)C[C@H]1C)c1ccccc1`, the cytotoxicity call in experiment [1] and in experiment [2] was “inactive” each time. The growth inhibition call in experiment [3] was “inactive”.
As to `C=C(C)c1c2c(c(Cl)c3ccccc13)C[N+](CC)(CC)C2`, the cytotoxicity call in experiment [1] and in experiment [2] was “inactive” in each case. For the same compound, in experiment [3], the growth inhibition call is “inactive”.
`COc1ccc(CN(C)C[C@@H]2OCCCC[C@H](C)Oc3ccc(NC(=O)C4CCCCC4)cc3C(=O)N([C@H](C)CO)C[C@@H]2C)cc1`: the cytotoxicity call in experiment [1] and in experiment [2] was “inactive” throughout. Moreover, the growth inhibition call in experiment [3] is “inactive”.
With `Cc1noc(C)c1NC(=O)N(C)C[C@@H]1OCCCC[C@@H](C)Oc2ccc(NS(=O)(=O)c3ccccc3)cc2C(=O)N([C@H](C)CO)C[C@H]1C`, the cytotoxicity call in experiment [1] and in experiment [2] was “inactive” each time. Moreover, the growth inhibition call in experiment [3] is “inactive”.
Consider `C[C@H]1CN([C@@H](C)CO)S(=O)(=O)c2ccc(C#CC3(O)CCCC3)cc2O[C@@H]1CN(C)C(=O)Cc1cccnc1`, for which the cytotoxicity call in experiment [1] and in experiment [2] was “inactive” in each case. In addition, the growth inhibition call in experiment [3] was “inactive”.
`C[C@@H]1CCCCO[C@@H](CN(C)C(=O)Nc2ccc(C(F)(F)F)cc2)[C@H](C)CN([C@@H](C)CO)C(=O)c2cc(NC(=O)Nc3ccc(C(F)(F)F)cc3)ccc2O1`: the cytotoxicity call in experiment [1] and in experiment [2] was “inactive” throughout. For the same compound, the growth inhibition call in experiment [3] was “inactive”.
Turning to `Cc1cccc(S(=O)(=O)N2C[C@H](O)COC[C@H]3O[C@@H](CC(=O)NCCCN4CCOCC4)CC[C@@H]32)c1`, the cytotoxicity call in experiment [1] and in experiment [2] was “inactive” in each case. Moreover, the growth inhibition call in experiment [3] was “inactive”.
